Data taken from ChEMBL document CHEMBL4888484, “Replenishing the malaria drug discovery pipeline: Screening and hit evaluation of the MMV Hit Generation Library 1 (HGL1) against asexual blood stage Plasmodium falciparum ,using a nano luciferase reporter read-out” (2022).
In all, about 150,000 compounds went through this assay and about 540 (0.36%) showed an effect of 50% or more. The list shows a part of the results.

What follows are compounds tested on Plasmodium falciparum (assay: Primary screen in NF54 nanoGlo assay, in single point, at 2uM, 72h; a lower Z score goes with more inhibition). Conditions: timepoint 72 hour.
Format: functional, Erythrocyte
For `CCC(C)NC(=O)N1CCCC(CCO)C1` (centres undefined), the “% Inhibition” value was -8% and the Z score was 1.04. In the case of `CC1CCC(CNC(=O)OC(C)(C)C)N(Cc2ncccn2)C1C` (centres undefined), the “% Inhibition” value is reported as -7% and the Z score is reported as 0.73. `O=C(c1ccccc1)N1c2ccccc2NC(c2c[nH]c3ccccc23)C1c1c[nH]c2ccccc12` (centres undefined) was tested, and the “% Inhibition” value was -7% and the Z score was 0.9. In the case of `CCn1ccc(C(=O)N2CC(n3ccnc3)C2)n1`, the “% Inhibition” value is reported as -15% and the Z score is reported as 1.83. For `O=C1N/C(=N\O)c2cc(Cl)cc(Cl)c21`, the “% Inhibition” value was -16% and the Z score was 2.91. For `O=C(CN1C(=O)NC2(CCCCCCC2)C1=O)Nc1ccc(Cl)cc1`, the “% Inhibition” value was -6% and the Z score was 1.03. `CCOc1ccc(NC(=O)Cc2c(C)nc3nc(-c4cccnc4)nn3c2C)cc1` was tested, and the “% Inhibition” value was 1% and the Z score was -0.11. For `Cc1nc(C)c([C@H](C)NC(=O)C(C)C)s1`, the “% Inhibition” value was 10% and the Z score was -1.86. In the case of `Cc1cc(=O)n(CC(=O)N2CCOCC2)c2c(C)cccc12`, the “% Inhibition” value is reported as -4% and the Z score is reported as 0.47. With `O=C(CO[C@H](c1ccccc1)C(F)(F)F)N1CCC2(CCO2)CC1` the “% Inhibition” value was -5% and the Z score was 0.82. For `CCOC(=O)COc1ccc(C#N)cc1Cl`, the “% Inhibition” value was 5% and the Z score was -1.04. With `C[C@@H](CNC(=O)OC(C)(C)C)N(C)Cc1cn2ccccc2n1` the “% Inhibition” value was -13% and the Z score was 1.99. In the case of `Cc1ccc([C@H](CNC(=O)COc2cc(C)cc(C)c2)N2CCOCC2)cc1`, the “% Inhibition” value is reported as -9% and the Z score is reported as 1.79. `COc1ccc(-n2nc(C)c3sc(N4CCCN(C(=O)c5sccc5C)CC4)nc32)cc1` was tested, and the “% Inhibition” value was -13% and the Z score was 1.51. `CCNC(=O)c1ccc(N[C@H]2CCCc3c2cnn3C)nn1` was tested, and the “% Inhibition” value was -12% and the Z score was 1.53. With `COCC(O)CN(C)C(=O)C(C)c1ccccc1F` (centres undefined) the “% Inhibition” value was 2% and the Z score was -0.16. For `O=C(C[C@H]1CNCCO1)NCc1nc2ccccc2s1`, the “% Inhibition” value was 0% and the Z score was -0.06. With `CCC(CC)(CO)c1nc(Cn2ccnn2)no1` the “% Inhibition” value was 8% and the Z score was -1.12. For `O=S(=O)(NCC1CCN([C@H]2CCOC2)CC1)c1ccccc1`, the “% Inhibition” value was -3% and the Z score was 0.4. In the case of `CNC(=O)[C@H](Nc1nc(C)cc(N(C)C)n1)c1ccc(F)c(F)c1`, the “% Inhibition” value is reported as -3% and the Z score is reported as 0.51. In the case of `CC(C)[C@H]1CN(c2cc(NCCO)ncn2)C[C@@H]1NC(=O)C1CCC1`, the “% Inhibition” value is reported as 0% and the Z score is reported as 0.04. With `Cc1cccc(OCC(O)CN2CC3(C)CC2CC(C)(C)C3)c1` (centres undefined) the “% Inhibition” value was -12% and the Z score was 1. `Cc1cccc(NC(=O)c2ccn(COc3cccc(C(F)(F)F)c3)n2)n1` was tested, and the “% Inhibition” value was -2% and the Z score was 0.36. For `C[C@H]1CN(C(=O)Cn2cnc(C#N)n2)CCO1`, the “% Inhibition” value was 7% and the Z score was -0.96. `Cc1cc2occ(C(=O)N3CC4(CNC(=O)O4)C3)c2cc1C` was tested, and the “% Inhibition” value was -3% and the Z score was 0.38. With `CCC(C)CN1C(=O)C(C)NC12CCN(S(=O)(=O)c1ccc(Cl)c(Cl)c1)CC2` (centres undefined) the “% Inhibition” value was -4% and the Z score was 0.46. `Cc1ccc(NC(=O)[C@H](Cc2c[nH]c3ccccc23)NC(=O)C2CCN(C(=O)CNC(=O)OC(C)(C)C)CC2)cc1` was tested, and the “% Inhibition” value was -16% and the Z score was 1.42. `Cc1ccc(-n2nc3c(=O)n(CC(=O)NC4CCCC4)nc(C)c3c2C)cc1` was tested, and the “% Inhibition” value was 8% and the Z score was -0.98. `CC[n+]1c(/C=C/N(C)c2ccccc2)oc2ccc(-c3ccccc3)cc21` was tested, and the “% Inhibition” value was 88% and the Z score was -9.92. In the case of `COc1ccc(C(C)=O)cc1CON=C(N)C1CCCC1`, the “% Inhibition” value is reported as 0% and the Z score is reported as -0.05. With `O=C(COc1ccc(Cl)c(Cl)c1)N1CC[C@@]2(O)CCCC[C@H]2C1` the “% Inhibition” value was -3% and the Z score was 0.57. `CCn1cc(C2C[S+]([O-])CCN2Cc2sc(C)nc2C(F)(F)F)cn1` (centres undefined) was tested, and the “% Inhibition” value was -2% and the Z score was 0.26. With `Cc1ccc(CN2CCN(Cc3[nH]nc(C)c3Cl)[C@@H](C)C2=O)cc1` the “% Inhibition” value was -11% and the Z score was 1.87. For `Cc1cnn(C2CCN(CC3COC4(CCCCC4)O3)C2)c1` (centres undefined), the “% Inhibition” value was 3% and the Z score was -0.31. With `Cc1cc(NC(=O)c2cc(S(=O)(=O)N3CCc4ccccc43)cs2)no1` the “% Inhibition” value was -10% and the Z score was 1.15. For `O=C1C[C@H](c2ccc(F)cc2F)c2c(-c3ccc(Cl)cc3)n[nH]c2N1`, the “% Inhibition” value was 29% and the Z score was -3.31. For `CCc1c(C)sc(NC(=O)C(F)(F)F)c1C(N)=O`, the “% Inhibition” value was -27% and the Z score was 3.12. With `CN1CCO[C@@H](CNCc2cncc(Br)c2)C1` the “% Inhibition” value was 4% and the Z score was -0.53. In the case of `Cc1ccc(C)c(OCc2nnc(NC(=O)c3ccc4c(c3)OCO4)s2)c1`, the “% Inhibition” value is reported as -4% and the Z score is reported as 0.65. For `O=C(c1csc2c1CCCC2)N1CCC(Cc2ccccc2)CC1`, the “% Inhibition” value was -1% and the Z score was 0.18. In the case of `CC(=O)Nc1ccc2c(c1)C1CCN2CC1`, the “% Inhibition” value is reported as -31% and the Z score is reported as 3.61. For `NC(=O)C[C@H](c1c(F)cccc1Cl)c1c(Cc2ccccc2)[nH][nH]c1=O`, the “% Inhibition” value was -6% and the Z score was 0.79.
